# Some of the results follow.
# Experiments:
# Experiment in all cases: glycan array binding signal (z-score within array); higher = stronger binding
# Details in all cases: glycan notation: IUPAC condensed, linker removed
# [1] = target: Fuc(a1-2)Gal
# In short: (§1)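 Negative Z-scores can be read as non-binding. The Z-score is calculated within each array and then averaged across arrays of one protein sequence at different concentrations or buffers and across linkers. Arrays, 3228 in all, were curated from the Consortium for Functional Glycomics database and kept only where the protein sequence was available.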
# [2] = target: Fuc(a1-2)Gal(b1-3)GalNAc
# In short: as §1
# [3] = target: Fuc(a1-2)Gal(b1-3)GalNAc(a1-3)[Fuc(a1-2)]Gal(b1-4)Glc
# In short: as §1
# [4] = target: Fuc(a1-2)Gal(b1-3)GalNAc(a1-3)[Fuc(a1-2)]Gal(b1-4)GlcNAc
# In short: as §1
# [5] = target: Fuc(a1-2)Gal(b1-3)GalNAc(b1-3)Gal
# In short: as §1
# [6] = target: Fuc(a1-2)Gal(b1-3)GalNAc(b1-3)Gal(a1-4)Gal(b1-4)Glc
# In short: as §1
# [7] = target: Fuc(a1-2)Gal(b1-3)GalNAc(b1-4)[Neu5Ac(a2-3)]Gal(b1-4)Glc
# In short: as §1
# [8] = target: Fuc(a1-2)Gal(b1-3)GlcNAc
# In short: as §1
# [9] = target: Fuc(a1-2)Gal(b1-3)GlcNAc(b1-2)Man(a1-3)[Fuc(a1-2)Gal(b1-3)GlcNAc(b1-2)Man(a1-6)]Man(b1-4)GlcNAc(b1-4)GlcNAc
# In short: as §1
# [10] = target: Fuc(a1-2)Gal(b1-3)GlcNAc(b1-2)Man(a1-3)[Fuc(a1-2)Gal(b1-3)GlcNAc(b1-2)Man(a1-6)]Man(b1-4)GlcNAc(b1-4)[Fuc(a1-6)]GlcNAc
# In short: as §1
# [11] = target: Fuc(a1-2)Gal(b1-3)GlcNAc(b1-3)Gal(b1-4)Glc
# In short: as §1
# [12] = target: Fuc(a1-2)Gal(b1-3)GlcNAc(b1-3)GalNAc
# In short: as §1
# [13] = target: Fuc(a1-2)Gal(b1-3)GlcNAc(b1-3)[Fuc(a1-2)Gal(b1-3)GlcNAc(b1-6)]GalNAc
# In short: as §1
# [14] = target: Fuc(a1-2)Gal(b1-3)GlcNAc(b1-3)[Gal(b1-4)GlcNAc(b1-6)]Gal(b1-4)Glc
# In short: as §1
# [15] = target: Fuc(a1-2)Gal(b1-3)GlcNAc(b1-3)[Neu5Ac(a2-6)Gal(b1-4)GlcNAc(b1-6)]Gal(b1-4)Glc
# In short: as §1
# [16] = target: Fuc(a1-2)Gal(b1-3)GlcNAc6S
# In short: as §1
# [17] = target: Fuc(a1-2)Gal(b1-3)[Fuc(a1-4)]GlcNAc
# In short: as §1
# [18] = target: Fuc(a1-2)Gal(b1-3)[Fuc(a1-4)]GlcNAc(b1-2)Man(a1-3)[Fuc(a1-2)Gal(b1-3)[Fuc(a1-4)]GlcNAc(b1-2)Man(a1-3)]Man(b1-4)GlcNAc(b1-4)GlcNAc
# In short: as §1
# [19] = target: Fuc(a1-2)Gal(b1-3)[Fuc(a1-4)]GlcNAc(b1-2)Man(a1-3)[Fuc(a1-2)Gal(b1-3)[Fuc(a1-4)]GlcNAc(b1-2)Man(a1-6)]Man(b1-4)GlcNAc(b1-4)[Fuc(a1-6)]GlcNAc(b1-4)[Fuc(a1-6)]GlcNAc
# In short: as §1
# [20] = target: Fuc(a1-2)Gal(b1-3)[Fuc(a1-4)]GlcNAc(b1-3)[Fuc(a1-3)[Gal(b1-4)]GlcNAc(b1-6)]Gal(b1-4)Glc
# In short: as §1
# [21] = target: Fuc(a1-2)Gal(b1-3)[Fuc(a1-4)]GlcNAc(b1-3)[Gal(b1-4)GlcNAc(b1-6)]Gal(b1-4)Glc
# In short: as §1
# [22] = target: Fuc(a1-2)Gal(b1-4)Fuc(a1-3)]GlcNAc(b1-2)Man(a1-3)[Fuc(a1-2)Gal(b1-4)[Fuc(a1-3)]GlcNAc(b1-2)Man(a1-6)]Man(b1-4)GlcNAc(b1-4)GlcNAc
# In short: as §1
# [23] = target: Fuc(a1-2)Gal(b1-4)Glc
# In short: as §1
# [24] = target: Fuc(a1-2)Gal(b1-4)Glc6S
# In short: as §1
# [25] = target: Fuc(a1-2)Gal(b1-4)GlcNAc
# In short: as §1
# [26] = target: Fuc(a1-2)Gal(b1-4)GlcNAc(b1-2)Man
# In short: as §1
# [27] = target: Fuc(a1-2)Gal(b1-4)GlcNAc(b1-2)Man(a1-3)[Fuc(a1-2)Gal(b1-4)GlcNAc(b1-2)Man(a1-6)]Man(b1-4)GlcNAc(b1-4)GlcNAc
# In short: as §1
# [28] = target: Fuc(a1-2)Gal(b1-4)GlcNAc(b1-2)Man(a1-3)[Fuc(a1-2)Gal(b1-4)GlcNAc(b1-2)Man(a1-6)]Man(b1-4)GlcNAc(b1-4)[Fuc(a1-6)]GlcNAc
# In short: as §1
# [29] = target: Fuc(a1-2)Gal(b1-4)GlcNAc(b1-2)[Fuc(a1-2)Gal(b1-4)GlcNAc(b1-4)]Man(a1-3)[Fuc(a1-2)Gal(b1-4)GlcNAc(b1-2)Man(a1-6)]Man(b1-4)GlcNAc(b1-4)GlcNAc
# In short: as §1
# [30] = target: Fuc(a1-2)Gal(b1-4)GlcNAc(b1-3)Gal(b1-4)GlcNAc
# In short: as §1
# [31] = target: Fuc(a1-2)Gal(b1-4)GlcNAc(b1-3)Gal(b1-4)GlcNAc(b1-2)Man(a1-3)[Fuc(a1-2)Gal(b1-4)GlcNAc(b1-3)Gal(b1-4)GlcNAc(b1-2)Man(a1-6)]Man(b1-4)GlcNAc(b1-4)GlcNAc
# In short: as §1
# [32] = target: Fuc(a1-2)Gal(b1-4)GlcNAc(b1-3)Gal(b1-4)GlcNAc(b1-3)Gal(b1-4)GlcNAc
# In short: as §1
# [33] = target: Fuc(a1-2)Gal(b1-4)GlcNAc(b1-3)GalNAc
# In short: as §1
# [34] = target: Fuc(a1-2)Gal(b1-4)GlcNAc(b1-3)[Fuc(a1-2)Gal(b1-4)GlcNAc(b1-6)]GalNAc
# In short: as §1
# [35] = target: Fuc(a1-2)Gal(b1-4)GlcNAc(b1-3)[Fuc(a1-3)[Gal(b1-4)]GlcNAc(b1-6)]Gal(b1-4)Glc
# In short: as §1
# [36] = target: Fuc(a1-2)Gal(b1-4)GlcNAc(b1-6)GalNAc
# In short: as §1
# [37] = target: Fuc(a1-2)Gal(b1-4)GlcNAc6S
# In short: as §1
# [38] = target: Fuc(a1-2)Gal(b1-4)[Fuc(a1-3)]GlcNAc
# In short: as §1
# [39] = target: Fuc(a1-2)Gal(b1-4)[Fuc(a1-3)]GlcNAc(b1-2)Man(a1-3)[Fuc(a1-2)Gal(b1-4)[Fuc(a1-3)]GlcNAc(b1-2)Man(a1-6)]Man(b1-4)GlcNAc(b1-4)[Fuc(a1-6)]GlcNAc
# In short: as §1
# [40] = target: Fuc(a1-2)Gal(b1-4)[Fuc(a1-3)]GlcNAc(b1-2)[Fuc(a1-2)Gal(b1-4)[Fuc(a1-3)]GlcNAc(b1-4)]Man(a1-3)[Fuc(a1-2)Gal(b1-4)[Fuc(a1-3)]GlcNAc(b1-2)Man(a1-6)]Man(b1-4)GlcNAc(b1-4)GlcNAc
# In short: as §1
# [41] = target: Fuc(a1-2)Gal(b1-4)[Fuc(a1-3)]GlcNAc(b1-3)Gal(b1-4)[Fuc(a1-3)]GlcNAc
# In short: as §1
# [42] = target: Fuc(a1-2)Gal(b1-4)[Fuc(a1-3)]GlcNAc(b1-3)Gal(b1-4)[Fuc(a1-3)]GlcNAc(b1-3)Gal(b1-4)[Fuc(a1-3)]GlcNAc
# In short: as §1
# [43] = target: Fuc(a1-2)Gal(b1-4)[Fuc(a1-3)]GlcNAc(b1-3)GalNAc
# In short: as §1
# [44] = target: Fuc(a1-2)Gal(b1-4)[Fuc(a1-3)]GlcNAc(b1-3)[Neu5Ac(a2-6)Gal(b1-4)GlcNAc(b1-6)]Gal(b1-4)Glc
# In short: as §1
# [45] = target: Fuc(a1-2)Gal3S(b1-4)GlcNAc
# In short: as §1
# [46] = target: Fuc(a1-2)Gal6S(b1-3)GlcNAc
# In short: as §1
# [47] = target: Fuc(a1-2)Gal6S(b1-3)GlcNAc6S
# In short: as §1
# [48] = target: Fuc(a1-2)Gal6S(b1-4)Glc
# In short: as §1
# [49] = target: Fuc(a1-2)Gal6S(b1-4)Glc6S
# In short: as §1
# [50] = target: Fuc(a1-2)[Gal(a1-3)]Gal
# In short: as §1
# [51] = target: Fuc(a1-2)[Gal(a1-3)]Gal(b1-3)GalNAc
# In short: as §1
# [52] = target: Fuc(a1-2)[Gal(a1-3)]Gal(b1-3)GalNAc(b1-3)Gal(a1-4)Gal(b1-4)Glc
# In short: as §1
# [53] = target: Fuc(a1-2)[Gal(a1-3)]Gal(b1-3)GlcNAc
# In short: as §1
# [54] = target: Fuc(a1-2)[Gal(a1-3)]Gal(b1-3)GlcNAc(b1-2)Man(a1-3)[Fuc(a1-2)[Gal(a1-3)]Gal(b1-3)GlcNAc(b1-2)Man(a1-6)]Man(b1-4)GlcNAc(b1-4)GlcNAc
# In short: as §1
# [55] = target: Fuc(a1-2)[Gal(a1-3)]Gal(b1-3)GlcNAc(b1-2)Man(a1-3)[Fuc(a1-2)[Gal(a1-3)]Gal(b1-3)GlcNAc(b1-2)Man(a1-6)]Man(b1-4)GlcNAc(b1-4)[Fuc(a1-6)]GlcNAc
# In short: as §1
# [56] = target: Fuc(a1-2)[Gal(a1-3)]Gal(b1-3)GlcNAc(b1-3)GalNAc
# In short: as §1
# [57] = target: Fuc(a1-2)[Gal(a1-3)]Gal(b1-3)GlcNAc(b1-6)GalNAc
# In short: as §1
# [58] = target: Fuc(a1-2)[Gal(a1-3)]Gal(b1-4)Glc
# In short: as §1
# [59] = target: Fuc(a1-2)[Gal(a1-3)]Gal(b1-4)GlcNAc
# In short: as §1
# [60] = target: Fuc(a1-2)[Gal(a1-3)]Gal(b1-4)GlcNAc(b1-2)Man
# In short: as §1
binder,measurement,setting,value
"MPA (Maclura pomifera), P18674 (protein) GVTFDDGAYTGIREINFEYNSETAIGGLRVTYDLNGMPFVAEDHKSFITGFKPVKISLEFPSEYIVEVSGYVGKVEGYTVIRSLTFKTNKQTYGPYGVTNGTPFSLPIENGLIVGFKGSIGYWLDYFSIYLSL",glycan array binding signal (z-score),[1],-0.172
same,glycan array binding signal (z-score),[2],-0.223
same,glycan array binding signal (z-score),[3],0.146
same,glycan array binding signal (z-score),[4],-0.211
same,glycan array binding signal (z-score),[5],-0.239
same,glycan array binding signal (z-score),[6],-0.152
same,glycan array binding signal (z-score),[7],-0.267
same,glycan array binding signal (z-score),[8],-0.228
same,glycan array binding signal (z-score),[9],0.333
same,glycan array binding signal (z-score),[10],-0.261
same,glycan array binding signal (z-score),[11],-0.242
same,glycan array binding signal (z-score),[12],-0.209
same,glycan array binding signal (z-score),[13],-0.043
same,glycan array binding signal (z-score),[14],-0.218
same,glycan array binding signal (z-score),[15],-0.157
same,glycan array binding signal (z-score),[16],-0.262
same,glycan array binding signal (z-score),[17],-0.187
same,glycan array binding signal (z-score),[18],1.31
same,glycan array binding signal (z-score),[19],-0.059
same,glycan array binding signal (z-score),[20],-0.28
same,glycan array binding signal (z-score),[21],-0.081
same,glycan array binding signal (z-score),[22],1.94
same,glycan array binding signal (z-score),[23],-0.172
same,glycan array binding signal (z-score),[24],-0.188
same,glycan array binding signal (z-score),[25],-0.164
same,glycan array binding signal (z-score),[26],-0.149
same,glycan array binding signal (z-score),[27],0.247
same,glycan array binding signal (z-score),[28],0.003
same,glycan array binding signal (z-score),[29],1.3
same,glycan array binding signal (z-score),[30],-0.271
same,glycan array binding signal (z-score),[31],0.487
same,glycan array binding signal (z-score),[32],-0.239
same,glycan array binding signal (z-score),[33],-0.163
same,glycan array binding signal (z-score),[34],-0.236
same,glycan array binding signal (z-score),[35],-0.245
same,glycan array binding signal (z-score),[36],-0.051
same,glycan array binding signal (z-score),[37],-0.163
same,glycan array binding signal (z-score),[38],-0.23
same,glycan array binding signal (z-score),[39],2
same,glycan array binding signal (z-score),[40],2.32
same,glycan array binding signal (z-score),[41],-0.271
same,glycan array binding signal (z-score),[42],-0.228
same,glycan array binding signal (z-score),[43],-0.203
same,glycan array binding signal (z-score),[44],-0.275
same,glycan array binding signal (z-score),[45],-0.171
same,glycan array binding signal (z-score),[46],-0.247
same,glycan array binding signal (z-score),[47],1.52
same,glycan array binding signal (z-score),[48],-0.251
same,glycan array binding signal (z-score),[49],-0.194
same,glycan array binding signal (z-score),[50],-0.257
same,glycan array binding signal (z-score),[51],-0.242
same,glycan array binding signal (z-score),[52],-0.195
same,glycan array binding signal (z-score),[53],-0.1
same,glycan array binding signal (z-score),[54],-0.085
same,glycan array binding signal (z-score),[55],-0.241
same,glycan array binding signal (z-score),[56],-0.238
same,glycan array binding signal (z-score),[57],-0.204
same,glycan array binding signal (z-score),[58],-0.03
same,glycan array binding signal (z-score),[59],-0.212
same,glycan array binding signal (z-score),[60],-0.187

# Source: the supplement of paper PMC8728848
